# In PubChem BioAssay (NCATS):
# Inconclusive means that the source gave no clear call. Such entries were picked first, then a sample of the others. Potencies of inconclusive entries are doubtful fits and often do not repeat. Calls of active or inactive are those of the source. The call rests on the fitted dose curve; in most records, active means well fitted cell-killing curve with a large enough effect; inconclusive means small, poorly fitted or top-dose-only effect, or effect the other way; inactive means no such curve, though single readings can be large or run the other way.
# Assay: Viability qHTS for spleen associated tyrosine kinase inhibitor (SYKi) naive MV4-11 cells (AID 1963823); further: nearly all actives have a fitted effect of over 40% in size
# Conditions: MV4-11 AML viability, CellTiter-Glo luminescence, 72 h; viability (% of control): at 45 µM (top of the series)
# Summary of the method: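 Viability of MV4-11 AML cells lacking prior SYK inhibitor exposure is scored by CellTiter-Glo luminescence following 72 hr compound incubation at 37 C, 5% CO2, seeded at 500 cells per well.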
# Potency means the concentration at half of the fitted maximal effect; tags describe the fitted curve by direction and shape.
Structure (SMILES),Potency,viability (% of control)
Cc1ccc2[nH]c(=O)c(C3=NN(C(=O)CCC(=O)O)C(c4ccc(Br)cc4)C3)c(-c3ccccc3)c2c1 (stereo not given),"inconclusive: 23.1 µM [cytotoxic, partial curve]",–
NC(=O)N1CCC(CC(=O)N2CCC(C3c4ncc(Br)cc4CCc4cc(Cl)cc(Br)c43)CC2)CC1 (stereo not given),"inconclusive: 2.59 µM [cytotoxic, partial curve]",–
CC(C)CC(=O)n1cc(C(N)=O)c(=O)cc1C(O)c1ccccc1 (stereo not given),"inconclusive: 8.05 µM [cytotoxic, partial curve, poor fit]",–
CCCCCCCCn1cc(CN(CC)CC)c2cc(-c3cnc(N)nc3)ccc21,"inconclusive: 2.59 µM [cytotoxic, full curve]",–
COc1cc2c(cc1OC)CC(=O)N(CCCNC[C@H]1Cc3cc(OC)c(OC)cc31)CC2,"inconclusive: 18.4 µM [cytotoxic, partial curve]",–
C[n+]1ccccc1/C=N/O,–,inactive: 83.2%
CC[C@H](C)[C@H](NC(=O)[C@H]([C@@H](C)CC)N(C)C(C)=O)C(=O)N[C@H](C(=O)N[C@@H](CC(C)C)C(=O)[C@@]1(C)CO1)[C@@H](C)O,active: 0.0058 µM,–
Cc1cc(OCCCS(C)(=O)=O)cc(C)c1-c1cccc(COc2ccc(C3=CC(=O)NS3=O)cc2)c1 (stereo not given),"inconclusive: 23.1 µM [cytotoxic, partial curve, poor fit]",–
CN1CCC[C@@H]1Cc1c[nH]c2ccc(CCS(=O)(=O)c3ccccc3)cc12,"inconclusive: 0.106 µM [rising, full curve]",–
CC(=O)OC1C(=O)C2(C)C(O)CC3OCC3(OC(C)=O)C2C(OC(=O)c2ccccc2)C2(O)CC(OC(=O)C(O)C(NC(=O)c3ccccc3)c3ccccc3)C(C)=C1C2(C)C (stereo not given),active: 0.0058 µM,–
CN1CCN(C(=O)c2cc3cc(Cl)ccc3[nH]2)CC1,"inconclusive: 14.6 µM [cytotoxic, partial curve, poor fit]",–
CCOc1nc2cccc(C(=O)OCc3oc(=O)oc3C)c2n1Cc1ccc(-c2ccccc2-c2noc(O)n2)cc1,–,inactive: 71.1%
CC[C@@H](Nc1c(Nc2cccc(C(=O)N(C)C)c2O)c(=O)c1=O)c1ccc(C)o1,–,inactive: 58.5%
Cc1cc(F)ccc1-c1nc(NCCN=C(N)NC#N)nc2c1ccc(=O)n2-c1c(F)cccc1F,active: 14.6 µM,–
CC(C)(OC1OC(CO)C(O)C(O)C1O)C1CCC(O)(CO)C2CC(O)C(C)(O)C2C1 (stereo not given),–,inactive: 98% [at 17.3 µM]
COc1ccc2[nH]c3c(-c4cccc5ccccc45)nccc3c2c1,active: 0.651 µM,–
O=C(NO)c1ccc(CC(=O)N(CCO)c2ccccc2)cc1,"inconclusive: 29.1 µM [cytotoxic, single point]",–
C=C(C(=O)OC)C1C(O)CC2(C)C(O)CCC(=O)C2C1O (stereo not given),–,inactive: 5.7%
CNS(=O)(=O)c1ccccc1Nc1nc(Nc2ccc(N3CCN(C)CC3)cc2OC)ncc1Cl,active: 0.0206 µM,–
C=C1CC2C3(C)C(O)CC(=O)C(C)(C)C3C(O)C(OC(C)=O)C2(C)C2C(=O)OC(C)(C(=O)OC)C(=O)C12C (stereo not given),"inconclusive: 14.2 µM [cytotoxic, single point]",–
C=C(C(=O)O)[C@H]1C[C@]2(C)[C@@H](O)CC[C@]23O[C@H]1C[C@@H]3C,"inconclusive: 14.6 µM [cytotoxic, single point]",–
C=C1CCN([C@H](C)[C@](O)(Cn2cncn2)c2ccc(F)cc2F)CC1,"inconclusive: 11.6 µM [cytotoxic, partial curve]",–
COc1cc(OC)c(NC(=O)c2ccc(Cc3cc4c(cc3C)C(C)(C)CCC4(C)C)o2)c(OC)c1,"inconclusive: 18.4 µM [cytotoxic, partial curve]",–
CCCCC1CCN(CCCN2C(=O)CCc3ccccc32)CC1,"inconclusive: 2.59 µM [cytotoxic, full curve]",–
C[C@@H]1O[C@@H](O[C@@H]2[C@@H](O)[C@H](O[C@H]3[C@H](O[C@H]4CC[C@@]5(C)C(CC[C@]6(C)C5CC=C5[C@@H]7CC(C)(C)CC[C@]7(C(=O)O[C@@H]7O[C@H](CO)[C@@H](O)[C@H](O)[C@H]7O[C@@H]7O[C@@H](C)[C@H](O[C@@H]8O[C@@H](C)[C@H](O)[C@@H](O)[C@H]8O)[C@@H](O)[C@H]7O)CC[C@]56C)[C@@]4(C)CO)O[C@H](C(=O)O)[C@@H](O)[C@@H]3O)O[C@H](CO)[C@H]2O)[C@H](O)[C@H](O)[C@H]1O (stereo not given in full),–,inactive: 94% [at 9.25 µM]
C=C1C(=O)OC2CC(C)C(CCC(C)O)=CCC12 (stereo not given),"inconclusive: 11.6 µM [cytotoxic, partial curve]",–
CCn1c2ccccc2c2cc(Nc3ccnc(NCCCN4CCOCC4)n3)ccc21,active: 2.31 µM,–
C[C@@H]1O[C@@H](O[C@H]2[C@H](OC(=O)[C@]34CCC(C)(C)C[C@H]3C3=CCC5[C@@]6(C)CC[C@H](O[C@@H]7O[C@H](C(=O)O)[C@@H](O)[C@H](O)[C@H]7O[C@@H]7O[C@H](CO)[C@H](O)[C@H](O)[C@H]7O)[C@@](C)(C=O)C6CC[C@@]5(C)[C@]3(C)C[C@H]4O)O[C@H](C)[C@H](O[C@@H]3O[C@H](C)[C@H](O)[C@H](O)[C@H]3O)[C@@H]2O)[C@H](O)[C@H](O)[C@H]1O[C@@H]1OC[C@@H](O)[C@H](O[C@@H]2O[C@H](CO)[C@@H](O)[C@H](O)[C@H]2O)[C@H]1O (stereo not given in full),–,inactive: 5.74% [at 4.97 µM]
CCC(C)/C=C(C)/C=C/C1=CC2=C(Cl)C(=O)C(C)(OC(C)=O)C(=O)C2=CN1C1CCCCN(C(CCC(N)=O)C(=O)O)C1=O (stereo not given),–,inactive: 65.4% [at 17.3 µM]
Cc1ccc(NC(=O)C(C)C)cc1C1CCN(Cc2ccc(Oc3ccc(F)c(F)c3)cc2)CC1,"inconclusive: 5.8 µM [cytotoxic, partial curve]",–
